The whole screen tested about 94,000 compounds, of which about 6,200 (6.6%) were called active. The shares of active, inactive and inconclusive entries below differ from those in the screen. The call rests on the fitted dose curve; in most records, active means well fitted inhibition curve with a large enough effect; inconclusive means small, poorly fitted or top-dose-only effect; inactive means flat fitted curve, though single readings scatter. A potency beside an inconclusive call is a rough fit, not a confirmed value.
Experiment: Cytotoxic Profiling in HEK 293 Cell Line of Diverse Libraries Using Quantitative High-Throughput Screening; further: nearly all actives have a fitted effect of over 60% in size
Settings: HEK 293 viability, ATP luminescence (CellTiter-Glo), 48-72 h; activity change, negative = cytotoxicity: at 115 µM (top of the series) unless noted; series mostly up to 115 µM
Summary of the method: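 Luminescence from cellular ATP, measured with CellTiter-Glo, indicates HEK 293 viability. Cells plated at 250 cells/well are treated with compound for 48 or 72 hr at 37 degree Celsius before reagent addition.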
On the % scale 0 is the no-effect control and ±100 the full control effect; potency means the concentration at half of the fitted maximal effect; tags describe the fitted curve by direction and shape.

Q: With COc1ccc(-c2cc3c(=O)n(CCNC(=O)c4cccc(N(C)C)c4)ccn3n2)cc1 as the compound, how does the Potency read?
A: inconclusive: 39.8 µM [inhibitor, partial curve, poor fit]

Q: For COc1ccccc1OCCC1CCN(C(=O)Cc2c[nH]c3ccccc23)C1 (stereo not given), which Potency is on record?
A: inconclusive: 50.1 µM [inhibitor, partial curve, poor fit]

Q: With COCCN1CCCC(c2[nH]ccc2C(=O)NCCn2cccn2)C1 (stereo not given) as the compound, how does the “outcome” value read?
A: inactive

Q: With CC(C)(C)C(=O)N1CCCC2(CNc3ncccc3[S+](=O)([O-])N2)C1 (stereo not given) as the compound, how does the “activity change, negative = cytotoxicity” value read?
A: inactive: -14%

Q: Which Potency does the source give for O=C1[C@@H]2C[C@@H](CN2C(=O)c2ccc(F)cc2)Oc2ccccc2N1Cc1ccc(OC(F)(F)F)cc1 here?
A: inconclusive: 70.8 µM [inhibitor, partial curve, poor fit]

Q: For COc1ccc(C(=O)N2CCCN(c3cc(-c4ccc(F)cc4)[nH]n3)CC2)c(C)c1, which Potency is on record?
A: inconclusive: 31.6 µM [inhibitor, partial curve, poor fit]

Q: Which Potency does the source give for COc1ccc(Cn2c(=O)c(C(=O)NCc3cccc(F)c3)nc3cccnc32)cc1 here?
A: inconclusive: 89.1 µM [inhibitor, single point]

Q: Which “activity change, negative = cytotoxicity” value does the source give for COc1ccccc1-n1c(=O)c(C(=O)Nc2ccc(F)cc2)nc2cccnc21 here?
A: inactive: 3.46%

Q: Which Potency does the source give for CC(=O)Nc1ccc(S(=O)(=O)N[C@H]2CO[C@H]3[C@@H]2OC[C@H]3OC(=O)Nc2ccc(Oc3ccccc3)cc2)cc1 here?
A: inconclusive: 56.2 µM [inhibitor, partial curve, poor fit]

Q: Which Potency does the source give for CCc1ccc(C(=O)Nc2cccc(-c3nnc4n3CCCC4)c2)cc1 here?
A: inconclusive: 44.7 µM [inhibitor, partial curve, poor fit]

Q: For COC(=O)CNC(=O)C1CCCCN1Cc1ccc(-c2ccsc2)cc1 (stereo not given), which Potency is on record?
A: inconclusive: 79.4 µM [inhibitor, partial curve, poor fit]

Q: Which Potency does the source give for FC(F)(F)c1cccc(C2=NOC3(CCCN(Cc4ccccc4)C3)C2)c1 (stereo not given) here?
A: inconclusive: 50.1 µM [inhibitor, partial curve, poor fit]

Q: For COc1ccccc1CNC(=O)CCC1CCN(S(=O)(=O)c2ccccc2)CC1, which Potency is on record?
A: inconclusive: 44.7 µM [inhibitor, partial curve, poor fit]

Q: For C#CCNC(=O)C1CCN(c2nccc(Nc3ccccc3Cl)n2)CC1, which Potency is on record?
A: inconclusive: 39.8 µM [inhibitor, partial curve, poor fit]

Q: Which Potency does the source give for CC1CCC2(CC1)OCC(C(=O)NCC1CCCO1)N2C(=O)c1ccc(Cl)c(Cl)c1 (stereo not given) here?
A: inconclusive: 63.1 µM [inhibitor, partial curve, poor fit]

Q: With CC(=O)N1CCCC(c2nn(-c3ccccn3)c(=O)[nH]2)C1 (stereo not given) as the compound, how does the “activity change, negative = cytotoxicity” value read?
A: inactive: -1.1% [at 172 µM]

Q: With CC(C)c1nc2c(c(-c3ccc(Cl)cc3)n1)CCN(Cc1ccccc1)CC2 as the compound, how does the Potency read?
A: inconclusive: 79.4 µM [inhibitor, partial curve, poor fit]

Q: Which Potency does the source give for COc1cccc(-c2cccc(CN3CCCC3C(=O)NCc3cccc(F)c3)c2)c1 (stereo not given) here?
A: inconclusive: 50.1 µM [inhibitor, partial curve, poor fit]

Q: For CCN1CCN(CCNC(=O)c2cc(-c3ccc(C)cc3)cn2C)CC1, which Potency is on record?
A: inconclusive: 89.1 µM [inhibitor, single point]

Q: For O=C1NCc2ccccc2CC12CCCN2Cc1ccc(Br)cc1 (stereo not given), which Potency is on record?
A: inconclusive: 50.1 µM [inhibitor, partial curve, poor fit]

Q: Which Potency does the source give for Cn1nc(C(=O)N2CCC3(CC2)N=C(c2ccccc2)NO3)c2ccccc21 here?
A: inconclusive: 89.1 µM [inhibitor, single point]

Q: For COc1ccc(C2Cn3cnc(C(=O)N4CCC(C(=O)Nc5ccc(C)c(F)c5)CC4)c3CO2)cc1 (stereo not given), which “activity change, negative = cytotoxicity” value is on record?
A: inactive: -13.1%

Q: With CC(C)CN1C(=O)c2cccn2CC1CNC(=O)c1nn(C)c2ccccc12 (stereo not given) as the compound, how does the Potency read?
A: inconclusive: 79.4 µM [inhibitor, partial curve, poor fit]

Q: Which “activity change, negative = cytotoxicity” value does the source give for Cc1nonc1OCCNC1CCC2(CCNCC2)CC1 here?
A: inactive: -20.4%

Q: Which Potency does the source give for CCc1ccc(C(=O)N2CCN(C(=O)c3nnn4c3COC(c3ccc(OC)cc3)C4)CC2)cc1 (stereo not given) here?
A: inconclusive: 10 µM [inhibitor, full curve, poor fit]

Q: For COc1cccc(C(=O)NC2CCN(C(=O)c3ccc(-c4cncnc4)cc3)CC2)c1, which “activity change, negative = cytotoxicity” value is on record?
A: inactive: -5.34%

Q: With COc1cccc(C(=O)N2CCC(N3C[C@H](O)C[C@H]3C(=O)NC3CCCCC3)CC2)c1C as the compound, how does the “activity change, negative = cytotoxicity” value read?
A: inactive: 1.52%

Q: Which Potency does the source give for COc1ccccc1-c1cccc(CN2CCCC(C(=O)N3CCC(c4ccccc4)CC3)C2)c1 (stereo not given) here?
A: active: 39.8 µM

Q: For Cc1noc([C@@H]2CN(C(=O)CN3CCCCCC3)C[C@H]2CO)n1, which “activity change, negative = cytotoxicity” value is on record?
A: inactive: 4.38%

Q: With CC(C)c1nncn1C1CCN(S(=O)(=O)c2ccc(C(F)(F)F)cc2)CC1 as the compound, how does the Potency read?
A: inconclusive: 39.8 µM [inhibitor, partial curve]

Q: For COc1ccc(-n2c(=O)c3c(n2Cc2ccccc2)CN(C(=O)c2ccnn2C)CC3)cc1, which “activity change, negative = cytotoxicity” value is on record?
A: inactive: -4.8%

Q: With COCCNC(=O)c1nc(-c2cccc(C(F)(F)F)c2)c2ccccn12 as the compound, how does the Potency read?
A: inconclusive: 56.2 µM [inhibitor, partial curve, poor fit]

Q: For CNC(=O)CN1CCCCC1C(=O)Nc1cccc(-c2cccc(OC)c2)c1 (stereo not given), which Potency is on record?
A: inconclusive: 89.1 µM [inhibitor, single point]

Q: For CCNc1cc(N2CCC(CCC(=O)NC(CC)CC)CC2)ncn1, which Potency is on record?
A: inconclusive: 79.4 µM [inhibitor, single point]

Q: Which Potency does the source give for COCC1CN(C)CC12CCN(Cc1ccc(C#N)cc1)CC2 (stereo not given) here?
A: inconclusive: 39.8 µM [inhibitor, full curve, poor fit]

Q: With O=c1[nH]c(N2CCOCC2)nc2c1CCN(Cc1cccc(Cl)c1F)CC2 as the compound, how does the Potency read?
A: inconclusive: 50.1 µM [inhibitor, partial curve, poor fit]

Q: For O=C(OCc1ccccc1)N1CCC2(C1)C(=NC1CCCC1)NC(=O)N2c1cccnc1 (stereo not given), which “outcome” value is on record?
A: inactive

Q: For O=C(NCC12CCCC=C1N(CC1CC1)C(=O)CC2)c1ccccc1 (stereo not given), which Potency is on record?
A: inconclusive: 89.1 µM [inhibitor, single point]

Q: For COCC(=O)NC[C@@H]1C=C(C)[C@H](CC(=O)NCc2ccc(F)cc2)C[C@H]1C(C)C, which Potency is on record?
A: inconclusive: 100 µM [inhibitor, partial curve, poor fit]

Q: With O=C(NC[C@H]1COCc2nc3ccccc3n21)c1ccc(Cl)cc1 as the compound, how does the Potency read?
A: inconclusive: 112 µM [inhibitor, partial curve]

Q: Which “activity change, negative = cytotoxicity” value does the source give for CN(C)CC1(O)CCC2(CCN(C(=O)Cn3c(=O)oc4ccccc43)CC2)CC1 here?
A: inactive: -4.9%

Q: For O=C(C1CCCC1)N1CCC(C(=O)N2CCC(c3nc4ncccc4[nH]3)CC2)CC1, which “outcome” value is on record?
A: inactive

Q: With Cc1nnc(-c2cc(-c3cccc(CO)c3)ccn2)n1Cc1ccccc1 as the compound, how does the Potency read?
A: inconclusive: 100 µM [inhibitor, partial curve, poor fit]

Q: With C#CCNC(=O)c1cc(-c2cccc(F)c2)nc2c1cnn2C as the compound, how does the Potency read?
A: inconclusive: 70.8 µM [inhibitor, partial curve, poor fit]

Q: Which Potency does the source give for Cc1noc(C)c1-c1cnc2n[nH]c(-c3ccccc3)c2n1 here?
A: inconclusive: 141 µM [inhibitor, partial curve, poor fit]

Q: Which Potency does the source give for c1cc(-c2cc3c(ccn3Cc3ccncc3)c(N3CCOCC3)n2)c2cn[nH]c2c1 here?
A: active: 89.1 µM

Q: With Nc1nc(C2CC(O)C2)cc(N2CCC(Cc3ccc(F)cc3)CC2)n1 (stereo not given) as the compound, how does the Potency read?
A: inconclusive: 11.2 µM [inhibitor, full curve, poor fit]

Q: With O=C1CCN(C(=O)[C@@H](Cc2ccccc2)NS(=O)(=O)c2cccs2)CCOCCN1 as the compound, how does the Potency read?
A: inconclusive: 100 µM [inhibitor, single point]

Q: Which “activity change, negative = cytotoxicity” value does the source give for CCOC(=O)C1CCN(C(=O)c2cc(-c3ccccc3OC)c3nncn3n2)CC1 here?
A: inactive: -22.7%

Q: Which Potency does the source give for O=C1Nc2ccccc2C12CCN(S(=O)(=O)c1cccs1)C2 (stereo not given) here?
A: active: 89.1 µM

Q: For COc1cccc(CNC(=O)c2ccc3nc(-c4ccnc(Cl)c4)oc3c2)c1, which “activity change, negative = cytotoxicity” value is on record?
A: inactive: -8.25%

Q: Which Potency does the source give for CCN1c2cc(C(=O)Nc3cccc(Cl)c3)ccc2C(=O)N2CCCCC21 (stereo not given) here?
A: active: 31.6 µM

Q: For Cc1ccc(NC(=O)c2cnc(-c3ccccc3)nc2-c2ccncc2)cc1C, which Potency is on record?
A: inconclusive: 79.4 µM [inhibitor, partial curve, poor fit]

Q: Which Potency does the source give for Cc1ccc(NC(=O)CN2C(=O)NC(c3ccc(Cl)cc3)C3=C2COC3=O)c(Cl)c1 (stereo not given) here?
A: active: 44.7 µM

Q: For COc1ccc(CN(C(=O)c2ccco2)c2ccc(CC(=O)NC(C)c3ccccc3)cc2)cc1 (stereo not given), which Potency is on record?
A: inconclusive: 39.8 µM [inhibitor, full curve, poor fit]

Q: With Cc1cc(F)ccc1CN1CCC(CO)(CN2CCCC2)CC1 as the compound, how does the Potency read?
A: inconclusive: 50.1 µM [inhibitor, partial curve, poor fit]

Q: Which “activity change, negative = cytotoxicity” value does the source give for CN1CCC(C2CCNC2)CC1 (stereo not given) here?
A: inactive: -1.06%

Q: Which “outcome” value does the source give for CNCc1ccc(F)cc1 here?
A: inactive [at 287 µM]

Q: With O=C(c1ccc(C(F)(F)F)cc1)N1CCC2(C1)C(=O)N(CCc1ccccc1)c1ccccc12 (stereo not given) as the compound, how does the Potency read?
A: active: 31.6 µM

Q: With O=C(Nc1cccc(-c2nnc3n2CCCC3)c1)c1cc(-c2ccccc2)n[nH]1 as the compound, how does the Potency read?
A: active: 28.2 µM

Q: For COc1ccc(C(=O)N[C@H]2CC[C@]3(C)CC[C@@H]4[C@H](OC(=O)[C@H]4C)[C@H]3[C@@H]2C)cc1, which “activity change, negative = cytotoxicity” value is on record?
A: inactive: 3.87% [at 172 µM]

Q: With O=C(NCCCc1ccccc1)C1CCCCN1Cc1ccc(-c2cccs2)cc1 (stereo not given) as the compound, how does the Potency read?
A: inconclusive: 50.1 µM [inhibitor, partial curve, poor fit]

Q: Which Potency does the source give for CN(Cc1ccc(-c2ccccc2)cc1)C(=O)c1ccc(F)cc1 here?
A: active: 70.8 µM

Q: Which Potency does the source give for Cc1c(-c2ccccc2F)[nH]c2ccc(CNC(=O)CCN3CCCO3)cc12 here?
A: inconclusive: 28.2 µM [inhibitor, partial curve, poor fit]

Q: For C=CCNC(=O)CCc1c(C)nn(-c2ccc(F)cc2)c1Oc1cccc(F)c1, which Potency is on record?
A: inconclusive: 50.1 µM [inhibitor, partial curve, poor fit]
